# PubChem BioAssay (Tox21)
# Several values for one entry are separate records, joined by “and”; a condition that tells them apart may be missing. Equal entries are not always repeated. Inconclusive means that the source gave no clear call. Such entries were picked first, then a sample of the others. Potencies of inconclusive entries are doubtful fits and often do not repeat. Activity calls are given as the source filed them. Unless noted, the call rests on the fitted dose curve; in most records, active means well fitted cell-killing curve with a large enough effect in the repeat runs; inconclusive means weak or mixed curves, or effect the other way; inactive means no such curve, though single readings can be large or run the other way.
# How the values were obtained:
# [1] = qHTS assay to identify small molecule agonists of the farnesoid-X-receptor (FXR) signaling pathway - cell viability counter screen (AID 743218); settings: FXR-bla HEK293T viability, CellTiter-Glo luminescence, 16 h; viability change, negative = cytotoxic: at 62.6 µM (top of the series) unless noted; further: nearly all actives have a fitted effect of over 45% in size; on viability change, negative = cytotoxic: on the % scale 0 is the no-effect control and ±100 the full control effect
# Procedure, shortened: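 Readout: CellTiter-Glo luminescence, 30 min RT, multiplexed after the FXR-bla FRET reading. HEK 293T FXR-UAS-bla cells received compound 5 h post-plating and were incubated 16 h at 37 C.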
# [2] = target: Bile acid receptor (Homo sapiens) (UniProt Q96RI1); assay: qHTS assay to identify small molecule agonists of the farnesoid-X-receptor (FXR) signaling pathway (AID 743220; active means well fitted activation curve with a large enough effect in the signal ratio in the repeat runs, not every such curve was filed as active; inconclusive means weak or mixed curves, or effect the other way; the % refers to the signal ratio); settings: HEK293T FXR-UAS-bla, beta-lactamase FRET ratio, 16 h; activation: at 62.6 µM (top of the series) unless noted
# UniProt Q96RI1, sequence (Q96RI1 whole entry, looked up): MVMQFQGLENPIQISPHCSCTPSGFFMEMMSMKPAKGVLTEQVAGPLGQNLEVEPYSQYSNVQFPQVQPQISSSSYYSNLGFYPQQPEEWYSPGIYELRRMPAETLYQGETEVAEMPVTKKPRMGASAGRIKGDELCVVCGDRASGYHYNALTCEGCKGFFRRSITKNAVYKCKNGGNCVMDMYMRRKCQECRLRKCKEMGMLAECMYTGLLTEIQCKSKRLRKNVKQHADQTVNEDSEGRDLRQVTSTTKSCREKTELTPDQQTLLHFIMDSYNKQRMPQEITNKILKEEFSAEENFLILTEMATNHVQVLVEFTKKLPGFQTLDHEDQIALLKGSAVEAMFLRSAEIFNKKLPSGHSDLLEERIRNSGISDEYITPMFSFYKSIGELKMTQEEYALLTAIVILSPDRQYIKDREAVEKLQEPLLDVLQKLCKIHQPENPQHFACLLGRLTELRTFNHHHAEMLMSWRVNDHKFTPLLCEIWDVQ
# Procedure, shortened: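 FXR-UAS-bla HEK 293T cells carrying a UAS-driven beta-lactamase reporter were plated for 5 h at 37C/5% CO2, then exposed to DMSO-dissolved Tox21 10K compounds for 16 h at 37C. A LiveBLAzer B/G FRET substrate was loaded for 2 h at room temperature before fluorescence reading.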
# [3] = qHTS assay to identify small molecule antagonists of the farnesoid-X-receptor (FXR) signaling pathway - cell viability counter screen (AID 743221; active means well fitted cell-killing curve with a large enough effect in the repeat runs, not every such curve was filed as active; inconclusive means weak or mixed curves, or effect the other way; inactive means no such curve, though single readings can be large or run the other way; further: nearly all actives have a fitted effect of over 50% in size); settings: FXR-bla HEK293T viability, CellTiter-Glo luminescence, 16 h; activity change, negative = cytotoxicity: at 62.6 µM (top of the series) unless noted
# Procedure, shortened: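 CellTiter-Glo, 30 min RT, luminescence; same wells as the LiveBLAzer FRET read. Cells: FXR-UAS-bla HEK 293T. Treatment: compound with chenodeoxycholic acid 50 uM final, 16 h at 37 C.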
# [4] = target: Vitamin D3 receptor (Homo sapiens) (UniProt P11473); assay: qHTS assay to identify small molecule antagonists of the vitamin D receptor (VDR) signaling pathway (AID 743223; active means well fitted inhibition curve with a large enough effect in the signal ratio in the repeat runs, not every such curve was filed as active; inconclusive means weak or mixed curves, or effect the other way; inactive means no such curve, though single readings can be large or run the other way; the % refers to the signal ratio; on activity change, negative = inhibition: on the % scale 0 is the no-effect control and ±100 the full control effect); settings: VDR-UAS-bla HEK293T, beta-lactamase FRET ratio, 16 h
# UniProt P11473, sequence (P11473 whole entry, looked up): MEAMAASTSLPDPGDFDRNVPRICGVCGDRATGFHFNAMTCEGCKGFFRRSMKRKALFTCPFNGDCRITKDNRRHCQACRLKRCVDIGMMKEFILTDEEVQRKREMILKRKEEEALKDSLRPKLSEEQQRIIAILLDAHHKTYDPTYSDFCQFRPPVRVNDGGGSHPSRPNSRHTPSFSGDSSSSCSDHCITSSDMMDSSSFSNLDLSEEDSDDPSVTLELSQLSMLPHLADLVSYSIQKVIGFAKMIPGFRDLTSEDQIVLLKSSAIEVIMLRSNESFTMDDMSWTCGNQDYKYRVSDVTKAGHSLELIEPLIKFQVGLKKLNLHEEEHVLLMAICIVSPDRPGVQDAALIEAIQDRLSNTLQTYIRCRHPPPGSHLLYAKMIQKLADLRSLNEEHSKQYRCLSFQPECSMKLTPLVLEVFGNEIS
# Procedure, shortened: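 After VDR-bla cells are plated and left 4 h at 37C, DMSO-dissolved compounds and 3 nM (final) calcitriol agonist are added. Incubation continues 16 h at 37C; FRET beta-lactamase substrate then develops 2 h at room temperature.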
# [5] = qHTS assay to identify small molecule agonists of the vitamin D receptor (VDR) signaling pathway - cell viability counter screen (AID 743224); settings: VDR-bla HEK293T viability, CellTiter-Glo luminescence, 16 h; series mostly up to 62.6 µM; further: nearly all actives have a fitted effect of over 50% in size
# Procedure, shortened: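 In parallel with the bla FRET readout, cytotoxicity toward VDR-bla cells after 16 h compound exposure was assessed by CellTiter-Glo, with luminescence recorded after a 30 min room-temperature incubation.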
# [6] = qHTS assay to identify small molecule antagonists of the vitamin D receptor (VDR) signaling pathway - cell viability counter screen (AID 743225); settings: VDR-bla HEK293T viability, CellTiter-Glo luminescence, 16 h; viability change, negative = cytotoxic: at 61 µM (top of the series); further: nearly all actives have a fitted effect of over 50% in size
# Procedure, shortened: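 Cytotoxicity toward the VDR-bla HEK 293T line was scored by ATP-based CellTiter-Glo luminescence, read in the wells already used for the beta-lactamase readout after 16 h compound treatment under 3 nM 1-alpha,25-dihydroxyvitamin D3 stimulation.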
# [7] = qHTS assay to identify small molecule agonists of the NFkB signaling pathway (AID 1159509; active means well fitted curve in the direction sought with a large enough effect in the signal ratio in the repeat runs, not every such curve was filed as active; inconclusive means weak or mixed curves, or a change in a side signal; inactive means no such curve, though single readings can be large or run the other way; the % refers to the signal ratio; on activation: on the % scale 0 is the no-effect control and ±100 the full control effect); settings: NFkB-bla ME-180 cells, beta-lactamase FRET ratio, 5 h; activation: at 61 µM (top of the series) unless noted
# Procedure, shortened: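 Agonist activity was read as beta-lactamase-driven FRET change (460 and 530 nm emission, 405 nm excitation) following 1.5 hr substrate loading at room temperature. Beforehand, ME-180 NFkB-bla reporter cells were treated with compounds for 5 hr at 37 C.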
# [8] = target: Vitamin D3 receptor (Homo sapiens) (UniProt P11473); assay: qHTS assay to identify small molecule agonists of the vitamin D receptor (VDR) signaling pathway (AID 743222; calls by dose curve; on activation: on the % scale 0 is the no-effect control and ±100 the full control effect); settings: HEK293T VDR-UAS-bla, beta-lactamase FRET ratio, 16 h; activation: at 63.5 µM (top of the series) unless noted
# Procedure, shortened: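 Following 4 h attachment at 37C, VDR-bla cells (2,000 per well) received DMSO-dissolved compounds or controls. After 16 h incubation, LiveBLAzer B/G FRET substrate was added and fluorescence read 2 h later at room temperature.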
# [9] = qHTS assay to identify small molecule agonists of the endoplasmic reticulum stress response signaling pathway (AID 1159516; active means well fitted activation curve with a large enough effect in the signal ratio in the repeat runs, not every such curve was filed as active; inconclusive means weak or mixed curves, or effect the other way; the % refers to the signal ratio); settings: ESRE-bla HeLa, ER stress beta-lactamase reporter, 5 h; activation: at 61 µM (top of the series) unless noted
# Procedure, shortened: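 Beta-lactamase expression from the ER stress response element in HeLa reporter cells is quantified with the LiveBLAzer B/G FRET substrate, read at 405 nm excitation after 2 hr at room temperature, following 5 hr compound treatment at 37 C.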
# [10] = activity change, negative = inhibition: at 61 µM (top of the series) unless noted
# Potency means the concentration at half of the fitted maximal effect; tags describe the fitted curve by direction and shape or compound fluorescence and quenching.
compound,measurement,setting,value
O=C1c2ccccc2C(=O)N1SC(Cl)(Cl)Cl,Potency,[1],"inconclusive: 60.8 µM [cytotoxic, single point] and active: 34.7 µM"
same,Potency,[2],"inconclusive: 2.75 µM [activator, full curve, poor fit]"
same,Potency,[3],"inconclusive: 54.2 µM [falling, single point] and inconclusive: 54.9 µM [falling, single point]"
same,Potency,[4]; [10],inconclusive: 54.2 µM and inconclusive: 17.4 µM
same,Potency,[5],active: 19.2 µM and active: 6.92 µM
same,Potency,[6],"active: 34.2 µM and inconclusive: 19.5 µM [cytotoxic, partial curve, poor fit]"
same,Potency,[7],"inconclusive: 43 µM [falling, partial curve] and inconclusive: 43.6 µM [falling, partial curve]"
CCOP(=O)(OCC)O/C(=C/Cl)c1ccc(Cl)cc1Cl,Potency,[1],inactive
same,Potency,[5],"inconclusive: 69.2 µM [cytotoxic, single point]"
same,Potency,[6],"inconclusive: 61.6 µM [cytotoxic, single point]"
same,Potency,[7],inactive
CN1CSC(=S)N(C)C1,Potency,[1],"active: 4.87 µM and inconclusive: 8.69 µM [cytotoxic, full curve]"
same,Potency,[3],"inconclusive: 15.4 µM [falling, partial curve]"
same,"activity change, negative = inhibition",[4]; [10],inconclusive: 3.35%
same,Potency,[5],active: 6.13 µM and active: 3.88 µM
same,Potency,[7],"inconclusive: 7.72 µM [falling, full curve] and inconclusive: 9.75 µM [falling, full curve]"
O=C(NC(=O)c1c(F)cccc1F)Nc1ccc(Oc2ccc(C(F)(F)F)cc2Cl)cc1F,Potency,[1],"inconclusive: 0.0195 µM [rising, full curve]"
same,activation,[8],inconclusive: 4.38%
same,"activity change, negative = inhibition",[4]; [10],inconclusive: 15.1% [activator]
same,Potency,[5],"inconclusive: 4.36 µM [cytotoxic, full curve]"
same,Potency,[7],"inconclusive: 0.155 µM [rising, full curve]"
CCC(C)c1cc([N+](=O)[O-])cc([N+](=O)[O-])c1O (centres undefined),Potency,[1],"inconclusive: 15.2 µM [rising, partial curve, poor fit]"
same,Potency,[2],"inconclusive: 49 µM [activator, partial curve]"
same,Potency,[8],"inconclusive: 34.7 µM [rising, partial curve, poor fit]"
same,"activity change, negative = inhibition",[4]; [10],inconclusive: 10.5%
same,Potency,[7],"inconclusive: 54.9 µM [falling, single point]"
CCCCC(CC)COC(=O)c1ccccc1C(=O)OCC(CC)CCCC (centres undefined),Potency,[1],"inconclusive: 3.89 µM [rising, full curve, poor fit]"
same,Potency,[2],"inconclusive: 27.3 µM [rising, single point]"
same,Potency,[3],"inconclusive: 4.36 µM [falling, full curve]"
same,Potency,[8],"inconclusive: 12.2 µM [falling, partial curve, poor fit]"
same,Potency,[4]; [10],"inconclusive: 1.1 µM [fluorescent, partial curve]"
same,Potency,[6],"inconclusive: 0.389 µM [cytotoxic, full curve, poor fit]"
same,Potency,[7],"inconclusive: 3.89 µM [falling, full curve]"
Cc1c(COC(=O)[C@@H]2[C@H](/C=C(\Cl)C(F)(F)F)C2(C)C)cccc1-c1ccccc1,"viability change, negative = cytotoxic",[1],inconclusive: -13.1%
same,Potency,[2],"inconclusive: 30.8 µM [rising, partial curve, poor fit]"
same,"activity change, negative = inhibition",[4]; [10],inconclusive: -9.91%
same,"activity change, negative = inhibition",[4]; at 61 µM (top of the series),inactive: -4.87%
same,Potency,[7],"inconclusive: 30.8 µM [falling, partial curve]"
CCCSP(=O)(OCC)Oc1ccc(Br)cc1Cl (centres undefined),Potency,[1],"inconclusive: 5.97 µM [rising, partial curve, poor fit]"
same,Potency,[5],"inconclusive: 26.7 µM [cytotoxic, single point]"
same,Potency,[7],inactive
CCOC(=O)c1ccccc1C(=O)OCC,Potency,[4]; [10],inactive
same,Potency,[6],inactive
same,Potency,[7],inactive
same,Potency,[9],inactive
NC1CCC(CC2CCC(N)CC2)CC1 (centres undefined),Potency,[1],"inconclusive: 8.56 µM [cytotoxic, partial curve, poor fit]"
same,Potency,[6],"inconclusive: 12.1 µM [cytotoxic, single point]"
same,activation,[7],inconclusive: 2.7%
CCCCOCCOP(=O)(OCCOCCCC)OCCOCCCC,Potency,[1],"inconclusive: 27.6 µM [cytotoxic, partial curve] and inactive"
same,Potency,[6],"inconclusive: 24.6 µM [cytotoxic, full curve] and inconclusive: 4.9 µM [cytotoxic, full curve, poor fit]"
same,activation,[7],inconclusive: -0.189%
Brc1ccc(Oc2cc(Br)c(Br)cc2Br)c(Br)c1,Potency,[1],"inconclusive: 62.1 µM [cytotoxic, single point]"
same,Potency,[7],"inconclusive: 69.7 µM [falling, single point]"
CNC(=O)N(C)c1nnc(C(C)(C)C)s1,Potency,[1],inactive
same,Potency,[4]; [10],"inactive and inconclusive: 1.95 µM [activator, full curve, poor fit]"
same,activation,[7],inconclusive: 3.72%
O=C(O)CC[N+](=O)[O-],Potency,[1],"inconclusive: 0.0025 µM [rising, full curve, poor fit]"
same,Potency,[3],inactive
same,Potency,[5],"inconclusive: 56.7 µM [cytotoxic, single point]"
same,Potency,[6],"inconclusive: 0.0019 µM [cytotoxic, full curve, poor fit]"
same,Potency,[7],"inconclusive: 0.11 µM [rising, full curve, poor fit]"
Clc1nc(Cl)nc(Cl)n1,Potency,[4]; [10],inactive
same,Potency,[6],inactive
same,Potency,[7],inactive
same,Potency,[9],"inconclusive: 0.0012 µM [inhibitor, full curve]"
O=c1oc2ccccc2c(O)c1C(CC(O)c1ccc(-c2ccc(Br)cc2)cc1)c1ccccc1 (centres undefined),Potency,[1],"inconclusive: 20.7 µM [cytotoxic, partial curve, poor fit]"
same,Potency,[2],"inconclusive: 13.1 µM [rising, full curve] and inconclusive: 13.3 µM [rising, full curve]"
same,"activity change, negative = inhibition",[4]; [10],inconclusive: 23.6% and inconclusive: 27.1%
same,Potency,[5],"inconclusive: 52 µM [cytotoxic, partial curve, poor fit]"
same,Potency,[6],"inconclusive: 11.6 µM [cytotoxic] and inconclusive: 23.9 µM [cytotoxic, partial curve, poor fit]"
same,Potency,[7],"inconclusive: 2.32 µM [rising, full curve, poor fit]"
ClC1=C(Cl)[C@]2(Cl)[C@@H]3[C@H]4C[C@H]([C@@H]5O[C@H]45)[C@@H]3[C@@]1(Cl)C2(Cl)Cl,Potency,[1],inactive
same,Potency,[8],"inconclusive: 38.9 µM [rising, partial curve]"
same,Potency,[6],inactive
same,Potency,[7],"inconclusive: 61.6 µM [falling, single point]"
CCCCCCC[CH2][Sn]([Cl])([Cl])[CH2]CCCCCCC,Potency,[1],active: 11 µM
same,Potency,[3],active: 54.9 µM
same,activation,[8],inconclusive: -28.9%
same,Potency,[5],"inconclusive: 24.5 µM [cytotoxic, full curve]"
same,Potency,[7],"inconclusive: 4.36 µM [falling, partial curve, poor fit]"
O=C/C(Cl)=C(/Cl)C(=O)O,Potency,[1],"inconclusive: 61.6 µM [cytotoxic, single point] and inconclusive: 54.9 µM [cytotoxic, single point]"
same,Potency,[2],"inconclusive: 61.6 µM [activator, single point] and inconclusive: 49 µM [activator, partial curve]"
same,Potency,[4]; [10],"inconclusive: 54.9 µM [inhibitor, single point]"
same,"activity change, negative = inhibition",[4]; [10],inconclusive: -24.4%
same,Potency,[5],"inconclusive: 61.6 µM [cytotoxic, partial curve, poor fit]"
same,Potency,[6],inactive
same,Potency,[7],"inconclusive: 48.9 µM [falling, partial curve] and inconclusive: 49 µM [falling, partial curve]"
CCO/N=C(\CC)C1=C(O)CC(c2c(C)cc(C)cc2C)CC1=O (centres undefined),Potency,[1],"inconclusive: 0.0436 µM [rising, full curve, poor fit]"
same,Potency,[3],"inconclusive: 24.5 µM [rising, partial curve, poor fit]"
same,Potency,[8],"inconclusive: 61.6 µM [fluorescent, single point]"
same,"activity change, negative = inhibition",[4]; [10],inconclusive: -1.17%
same,Potency,[5],"inconclusive: 19.5 µM [cytotoxic, full curve, poor fit]"
same,Potency,[6],"inconclusive: 49 µM [cytotoxic, partial curve, poor fit]"
same,Potency,[7],"inconclusive: 1.38 µM [rising, partial curve, poor fit]"
Cc1cccc(C)c1NC(=O)CN1CCCC1=O,Potency,[1],"inconclusive: 13.3 µM [rising, full curve]"
same,Potency,[5],"inconclusive: 5.49 µM [cytotoxic, partial curve, poor fit]"
same,Potency,[7],"inconclusive: 9.77 µM [rising, partial curve, poor fit]"
CCCCC/C=C\C/C=C\C/C=C\C/C=C\CCCC(=O)NCC(=O)O,Potency,[1],active: 29.8 µM
same,Potency,[3],"inconclusive: 29.8 µM [falling, single point]"
same,Potency,[6],"inconclusive: 26.8 µM [cytotoxic, single point]"
same,Potency,[7],"inconclusive: 26.8 µM [activator, partial curve, poor fit]"
N#CC(Cl)Cl,Potency,[6],inactive
same,Potency,[7],"inconclusive: 21.3 µM [rising, full curve, poor fit]"
same,Potency,[9],"inconclusive: 60 µM [rising, single point]"
S=C=NCCc1ccccc1,Potency,[1],"inconclusive: 0.11 µM [rising, full curve, poor fit]"
same,"activity change, negative = cytotoxicity",[3],inconclusive: -50.2%
same,activation,[8],inconclusive: -30.6%
same,Potency,[6],"inconclusive: 2.19 µM [cytotoxic, single point]"
same,Potency,[7],"inconclusive: 55.1 µM [falling, partial curve]"
